From article PMC7819943, “Rice protein-binding microarrays: a tool to detect cis-acting elements near promoter regions in rice” come the findings set out here.

This is one part of the list.

This test concerns the target T1, OsWOX13 (Oryza sativa, UniProt Q5QMM3 1-267).
T1 sequence: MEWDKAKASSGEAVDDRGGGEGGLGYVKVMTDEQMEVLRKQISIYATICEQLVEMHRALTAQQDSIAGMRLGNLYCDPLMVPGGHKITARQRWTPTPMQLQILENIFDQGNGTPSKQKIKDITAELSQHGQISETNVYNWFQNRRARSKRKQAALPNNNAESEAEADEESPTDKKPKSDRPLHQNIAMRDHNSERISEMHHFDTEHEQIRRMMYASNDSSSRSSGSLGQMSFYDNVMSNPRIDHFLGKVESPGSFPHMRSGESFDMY
Put plainly: protein-binding microarray (RPBM); PBS, 2% BSA, 51.3 ng/ul salmon testes DNA, 50 uM zinc acetate, 200 nM TF, 25 C, 1 h; high values mean tight binding. The conditions noted are these: protein: recombinant; tags: N-terminal polyhistidine and DsRed monomer fusion (pET32a); label: CyDye5-dUTP incorporated in the synthesized complementary strand; 3' TTTTT single-stranded linker to array surface; dsDNA, one strand shown. The method in brief: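 Binding signal here means per-feature fluorescence intensity in arbitrary units. The values were read on an Axon 4000B scanner after a custom Agilent array, double-stranded by primer extension with Cy5-dUTP, was incubated with 200 nM protein at 25 °C for 1 h in PBS with 2% BSA, salmon testes DNA and 50 µM zinc acetate, then washed. The proteins were transcription factors with an N-terminal polyhistidine tag and DsRed, expressed in E. coli BL21-CodonPlus and purified on Ni–NTA.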
Consider “TGTATAATTTGTAATCACAATGGCGGCATATACTTCTATCCGGAGTCACCTAGTGCAG”, for which the binding signal is 21600 fluorescence intensity (a.u.). With “TAGATTTTAATTTCAATCAAATTTTCAATTTTAACGTGAACGGAGTCACCTAGTGCAG” the figure was 27800 fluorescence intensity (a.u.). For the sequence “CAACATGGTAAATTGATTCTAACTAATTCTAATATGTATGCGGAGTCACCTAGTGCAG”, the binding signal is 19400 fluorescence intensity (a.u.). On to “TCCAATTACCATGACACTATATATCAAATTTCAAAGTTGACGGAGTCACCTAGTGCAG”, for which the binding signal is 3880 fluorescence intensity (a.u.). In the case of “ATCAAACTAATTAGTTAATGTAGATTATCTATAACAAAGACGGAGTCACCTAGTGCAG”, the binding signal is 23700 fluorescence intensity (a.u.). For “TTAGATTGCAGATGAACCGTAACTAACGGCGTCTGCAAAACGGAGTCACCTAGTGCAG”, the binding signal is 4910 fluorescence intensity (a.u.). Regarding “ACGGAGGGTGTAATAATCAATCAATCCTATGTTAATTGTTCGGAGTCACCTAGTGCAG”, the binding signal was 15800 fluorescence intensity (a.u.).

Turning to “GTGTCCATCATAGCATGATGATGATGATGCGCATTCGCCACGGAGTCACCTAGTGCAG”, the binding signal was 5000 fluorescence intensity (a.u.). With “GAACAAATCTTAAATATAATTATGTACCGTATAATTGGCTCGGAGTCACCTAGTGCAG” the figure was 13500 fluorescence intensity (a.u.).

Consider “ATATTTGATTAGATCGGTAATGGATGGCTATAACGTATGCCGGAGTCACCTAGTGCAG”, for which the binding signal was 58500 fluorescence intensity (a.u.). The value for “GTTAATCACATTTTAGATATTGCGCATCGTGGTTAGTTGCCGGAGTCACCTAGTGCAG” was 7190 fluorescence intensity (a.u.). With “TCCAAATAGAGTTTAATAATTTGTTTCCTATACTTCCTACCGGAGTCACCTAGTGCAG” the figure was 5130 fluorescence intensity (a.u.); with “TCTATTTAATTAATCCTAGAGTATCTGTAAGGTACCTTGGCGGAGTCACCTAGTGCAG”, 8940 fluorescence intensity (a.u.). Regarding “AGAGATCTTTGATTTGTGTTTGCTTGGGTTCGGCGGTTCACGGAGTCACCTAGTGCAG”, the binding signal is 6460 fluorescence intensity (a.u.).

As to “CCTAGCTAATTTCATCTCCCACGCCGAACGGAAACACATCCGGAGTCACCTAGTGCAG”, the binding signal was 3360 fluorescence intensity (a.u.).

Turning to “ATTAACCAGTATTAATAATTGAGGGACGTTGTATACTGGGCGGAGTCACCTAGTGCAG”, the binding signal is 20500 fluorescence intensity (a.u.).

For “CGAATCTAAACAATCAATATTTAATTATACTTCCTCTAGACGGAGTCACCTAGTGCAG”, the binding signal was 12600 fluorescence intensity (a.u.).

For “CGTAATTAGGCTTAAAAGATTCGTCTCGTAATTTACACGCCGGAGTCACCTAGTGCAG”, the binding signal is 32500 fluorescence intensity (a.u.). With “TTAATTGGTCAGTCATCAGTGTGTGTTAGGAACGTACGTACGGAGTCACCTAGTGCAG” the figure was 30000 fluorescence intensity (a.u.).

Consider “TTCAAATTTACAGGGTAAAATGTCAAAGGAAACCGACATTCGGAGTCACCTAGTGCAG”, for which the binding signal was 5490 fluorescence intensity (a.u.).

For “ACAAATGGATTAATGACTGTTTGACTCGCTTGCTCACTAGCGGAGTCACCTAGTGCAG”, the binding signal is 34200 fluorescence intensity (a.u.). On to “TTTTAATAATGTAATTCATGAATTTCTTTATTTATCCAAGCGGAGTCACCTAGTGCAG”, for which the binding signal is 6580 fluorescence intensity (a.u.).

With “CGTGTAGTACCAATCAATACGTCTCCAGTTGAGTAAGATACGGAGTCACCTAGTGCAG”, the binding signal is 3700 fluorescence intensity (a.u.). The value for “AACAAGTAATTTAAATCGTACAAGAATCAAAAGGTCCGAGCGGAGTCACCTAGTGCAG” was 6870 fluorescence intensity (a.u.); that for “AATAAAATTGATCACCTATAGCTAGCTAGTAGCTAGTGCCCGGAGTCACCTAGTGCAG” was 13100 fluorescence intensity (a.u.); that for “TGGAGTAATTAGGCTTAAAAGATTCGTTTCGTAATTTGCACGGAGTCACCTAGTGCAG” was 15600 fluorescence intensity (a.u.). For the sequence “CTTAAATTTAATGCTACTTATTTCACACGATGTCTTGGATCGGAGTCACCTAGTGCAG”, the binding signal is 23800 fluorescence intensity (a.u.). The value for “CCATGATTAGTCATAAGTGTTACAGTAACCGACATATGCTCGGAGTCACCTAGTGCAG” was 32200 fluorescence intensity (a.u.); that for “AAACAGATTAAAATTATCTCGGTTTCTATTAGCATGTTTTCGGAGTCACCTAGTGCAG” was 8660 fluorescence intensity (a.u.). The value for “ATCATTCAGGTACATCAATTACCAACCACTGAATGTTTGTCGGAGTCACCTAGTGCAG” was 3780 fluorescence intensity (a.u.); that for “CACAAATTGAAATACCATGTTTATCGACTTCAACCCAAGTCGGAGTCACCTAGTGCAG” was 41000 fluorescence intensity (a.u.); that for “AGCAAATAGATCTAATCTAACGGTGTAAATAACGGGTCCACGGAGTCACCTAGTGCAG” was 7830 fluorescence intensity (a.u.). On to “ATGACAAGACTCACCACTAATTAATTAATGACACACCTGGCGGAGTCACCTAGTGCAG”, for which the binding signal was 19600 fluorescence intensity (a.u.). With “ACTATGATTGTACAAACACCGGCATGCACCCACCTGGCATCGGAGTCACCTAGTGCAG” the figure was 24500 fluorescence intensity (a.u.); with “ATGTGTTCAGTTAACGCCAAAATTAAAAGTTTGATTAGAACGGAGTCACCTAGTGCAG”, 7050 fluorescence intensity (a.u.).

As for “CATGTCTCAATAAATTGATCGTTGGCAAAATCGGTTAGTCCGGAGTCACCTAGTGCAG”, the binding signal was 4980 fluorescence intensity (a.u.). With “CCGTGAAATAATCTAATTAAGAGAAGGCCCTCGTGCCGCTCGGAGTCACCTAGTGCAG” the figure was 12200 fluorescence intensity (a.u.); with “GTTAATTTGATCCATACCACTGCAATTTTACCTATTCAGACGGAGTCACCTAGTGCAG”, 17900 fluorescence intensity (a.u.); with “CAAGCTAATAATAATTAATTAATAATCTTCTGTCTGCTAACGGAGTCACCTAGTGCAG”, 16000 fluorescence intensity (a.u.). The value for “CATGATTTCAACATGATCCCATAATATAACAACACACCTCCGGAGTCACCTAGTGCAG” was 12300 fluorescence intensity (a.u.). With “CAAGCTTAATTAAGCTCATCGTCGCTCAGCATCAAGAAGCCGGAGTCACCTAGTGCAG” the figure was 6430 fluorescence intensity (a.u.); with “TTATAAAAGTTTAATCTCAATCATATCCAAAACGTTAATTCGGAGTCACCTAGTGCAG”, 4580 fluorescence intensity (a.u.).
